Measurements published in publication PMC4336329 (PLoS ONE, 2015).
Among all 310,000 compounds or so, about 2,200 (0.71%) showed an effect of 50% or more. Effects have a minus sign here. The list shows a part of the results.

Each molecule was assayed against human ether-à-go-go-related gene (hERG) potassium channel (human, UniProt Q12809) (assay: primary screen, population patch clamp on CHO cells stably expressing hERG).
human ether-à-go-go-related gene (hERG) potassium channel, sequence (Q12809 whole entry, looked up): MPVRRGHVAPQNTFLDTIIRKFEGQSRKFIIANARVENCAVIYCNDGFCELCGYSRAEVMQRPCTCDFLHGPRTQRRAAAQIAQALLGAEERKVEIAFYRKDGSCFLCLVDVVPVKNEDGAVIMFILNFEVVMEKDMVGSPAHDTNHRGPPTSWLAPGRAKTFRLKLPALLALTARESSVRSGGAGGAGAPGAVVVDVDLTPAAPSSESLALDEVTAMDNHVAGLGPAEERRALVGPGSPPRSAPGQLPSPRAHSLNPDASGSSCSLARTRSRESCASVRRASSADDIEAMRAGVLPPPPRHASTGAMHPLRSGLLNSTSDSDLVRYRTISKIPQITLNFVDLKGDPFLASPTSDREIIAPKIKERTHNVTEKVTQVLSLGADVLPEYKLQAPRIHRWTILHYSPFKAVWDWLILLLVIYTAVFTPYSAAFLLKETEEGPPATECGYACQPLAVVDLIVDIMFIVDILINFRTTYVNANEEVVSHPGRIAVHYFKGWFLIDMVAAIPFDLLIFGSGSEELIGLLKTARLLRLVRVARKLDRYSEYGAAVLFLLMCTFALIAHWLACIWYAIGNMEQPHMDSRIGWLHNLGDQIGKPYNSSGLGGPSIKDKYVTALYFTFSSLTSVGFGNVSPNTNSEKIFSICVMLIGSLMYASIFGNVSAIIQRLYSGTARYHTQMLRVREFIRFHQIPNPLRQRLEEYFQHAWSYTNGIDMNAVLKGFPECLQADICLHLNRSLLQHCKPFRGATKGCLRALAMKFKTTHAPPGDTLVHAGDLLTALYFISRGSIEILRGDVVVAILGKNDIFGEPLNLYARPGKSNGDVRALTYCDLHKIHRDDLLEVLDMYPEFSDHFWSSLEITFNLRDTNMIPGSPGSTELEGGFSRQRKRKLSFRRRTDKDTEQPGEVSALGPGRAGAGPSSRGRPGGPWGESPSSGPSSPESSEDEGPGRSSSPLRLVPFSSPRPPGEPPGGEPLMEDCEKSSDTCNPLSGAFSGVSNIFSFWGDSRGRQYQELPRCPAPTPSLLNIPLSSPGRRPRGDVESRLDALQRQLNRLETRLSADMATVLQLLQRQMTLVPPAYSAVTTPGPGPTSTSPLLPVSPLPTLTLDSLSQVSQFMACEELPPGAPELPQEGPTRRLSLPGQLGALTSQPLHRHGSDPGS

Compared with `CCc1ccccc1N(C1=NCCCS1)S(=O)(=O)c1ccc(C(C)(C)C)cc1`, `CCc1cccc(C)c1NC(=O)C(c1ccccc1)N1CCC1=O` (stereo not drawn) is higher in “hERG current change (%, negative = inhibition) at 1uM” value: 3.97% for the first, 11.5% for the second.

First: COc1ccc(NC(=O)CN(C)C(=O)C(Sc2ccccc2)c2ccccc2)cc1 (stereo not drawn)
Second: COC(=O)[C@H](Cc1ccccc1)NC(=O)O[C@@H]1C(=O)c2cc(Br)ccc2O[C@H]1c1cccc(OC)c1
The “hERG current change (%, negative = inhibition) at 1uM” value of the first is lower: 2.88% for the first, 9.8% for the second.

Compared with `COc1cc(OC)cc(C(=O)O/N=C(\N)c2cccc(C)c2)c1`, `COc1ccc(C(=O)/C=C/c2cccs2)c(OC(=O)c2cccc([N+](=O)[O-])c2)c1` is lower in “hERG current change (%, negative = inhibition) at 1uM” value: 9.35% for the first, 5.76% for the second.

Going from `CCC(C)(C)n1nnnc1CN1CCN(C(c2ccccc2)c2ccccc2)CC1` to `Cc1ccc2nc(-c3ccc(NC(=O)CN4CCN(c5ccccn5)CC4)cc3)sc2c1`, the “hERG current change (%, negative = inhibition) at 1uM” value rises from 0.415% to 12.6%.

First: CC(C)CC(C)N (stereo not drawn)
Second: CCOC(=O)Cn1nc(C)n(-c2c(C)cccc2C)c1=O
The “hERG current change (%, negative = inhibition) at 1uM” value of the first is lower: 9.83% for the first, 13% for the second.

First: Cc1cccc(-c2n[nH]c(=S)n2C)c1
Second: CCOC(=O)c1cnc2cc(-c3ccc(C)cc3)nn2c1-c1ccccc1
The “hERG current change (%, negative = inhibition) at 1uM” value of the first is higher: 12.1% for the first, 9.73% for the second.

First: CCCCNC(=O)COC(=O)c1cc(C)oc1C
Second: COc1cc(C(=O)OCC(=O)Nc2ccc3c(c2)OC(F)(F)O3)ccc1OCc1c(C)noc1C
The “hERG current change (%, negative = inhibition) at 1uM” value of the first is higher: 8.11% for the first, 3.96% for the second.

Going from `C=CCn1sc(N)c(C(=O)OCC)c1=S` to `CCOC(=O)c1c(/N=C/c2cccc(C)c2O)sc2c1CCN(C)C2`, the “hERG current change (%, negative = inhibition) at 1uM” value rises from 0.483% to 10.5%.

Compared with `CNc1nc(OC)nc(N(C#N)CN2C(=O)c3ccccc3S2(=O)=O)n1`, `CCCN1C(=O)c2ccc(C(=O)NCc3ccco3)cc2C1=O` is higher in “hERG current change (%, negative = inhibition) at 1uM” value: -0.215% for the first, 0.339% for the second.

Compared with `OC[C@@H](O)CCl`, `NC(=O)c1ccsc1NC(=O)CSc1nnc(C2CC2)n1Cc1ccccc1` is lower in “hERG current change (%, negative = inhibition) at 1uM” value: 12.7% for the first, -3.14% for the second.

Going from `O=C(Nc1cccc(C(F)(F)F)c1)c1scc2c1OCCO2` to `O=S(=O)(Cc1cccc(C(F)(F)F)c1)c1ncn[nH]1`, the “hERG current change (%, negative = inhibition) at 1uM” value rises from 6.75% to 17%.

Going from `C=CCSc1ncc(C#N)c(N)n1` to `N#CC1=C(N)Oc2n[nH]c(-c3cccs3)c2C1c1cccnc1` (stereo not drawn), the “hERG current change (%, negative = inhibition) at 1uM” value rises from -5.03% to 20.6%.

Compared with `COc1ccc(C(=O)NCc2nnc(SCC(=O)NC3CCCCC3)n2C)cc1`, `COc1ccc(C(=O)NC(=S)N2CCCC2)cc1` is lower in “hERG current change (%, negative = inhibition) at 1uM” value: 13.4% for the first, -2.18% for the second.

Compared with `O=C(Nc1ccc(OC(F)(F)F)cc1)Nc1cccc([N+](=O)[O-])c1`, `COc1ccc(NC(=O)Nc2ccccc2)cc1S(=O)(=O)N1CCCCC1` is lower in “hERG current change (%, negative = inhibition) at 1uM” value: 11.4% for the first, 10.1% for the second.

Going from `COc1ccccc1OCC(=O)NCCC1=CCCCC1` to `COc1ccccc1C(=O)NCCc1c(C)[nH]c2c(C)ccc(F)c12`, the “hERG current change (%, negative = inhibition) at 1uM” value falls from 10.7% to 9.12%.

First: CCCNS(=O)(=O)c1ccc(OCC(=O)OC)cc1
Second: Cc1ccc(S(=O)(=O)NNC(=O)CC#N)cc1
The “hERG current change (%, negative = inhibition) at 1uM” value of the first is lower: 5.98% for the first, 11% for the second.

Going from `Cc1ccc(SCC(=O)Nc2nnc(-c3ccco3)o2)cc1` to `Cc1ccc(SCCC(=O)NCCSCc2ccccc2C)cc1`, the “hERG current change (%, negative = inhibition) at 1uM” value rises from 7.91% to 10.1%.

First: CC1(C)CC(=O)C(C(N)=NC(=O)c2ccc([N+](=O)[O-])cc2)=C(O)C1
Second: COc1ccc(C(=O)c2cc3c(cc2[N+](=O)[O-])OCCO3)cc1
The “hERG current change (%, negative = inhibition) at 1uM” value of the first is higher: 13.3% for the first, 6.95% for the second.

First: Cc1ccc(Cn2c(C(C)Nc3nc(-c4ccc(F)cc4)cs3)nc3cc(C(F)(F)F)ccc32)cc1 (stereo not drawn)
Second: Cc1cccc(C(=O)NC(=S)Nc2ccc(Cc3ccncc3)cc2)c1
The “hERG current change (%, negative = inhibition) at 1uM” value of the first is higher: 13% for the first, 0.134% for the second.

Compared with `O=C(NCc1ccccn1)c1cc(-c2ccncc2)nc2ccccc12`, `Cc1cccc(C(=O)NCC(=O)Nc2ccncc2)c1` is lower in “hERG current change (%, negative = inhibition) at 1uM” value: -0.554% for the first, -2.43% for the second.

Compared with `COc1ccc2nc(NC(=O)CCN3C(=S)NC(C)(C)CC3C)sc2c1` (stereo not drawn), `CCOC(=O)C1CCN(C(=O)c2cc3ccc(OC)cc3[nH]2)CC1` is higher in “hERG current change (%, negative = inhibition) at 1uM” value: 1.42% for the first, 16.1% for the second.

Going from `COC(=O)C1=C(N)c2c(F)cccc2C1(C#N)c1ccc(F)cc1` (stereo not drawn) to `CNC(=O)CC1C(=O)N(c2ccc(F)cc2)C(=S)N1NC(=O)c1ccc(Br)cc1` (stereo not drawn), the “hERG current change (%, negative = inhibition) at 1uM” value falls from 10.4% to 9.79%.

First: Cl.c1ccc2c(c1)oc1c(Nc3ccc4c(c3)OCO4)ncnc12
Second: CC(C)CN(C(=O)c1ccc2c(c1)OCCO2)c1c(N)n(Cc2ccccc2)c(=O)[nH]c1=O
The “hERG current change (%, negative = inhibition) at 1uM” value of the first is higher: 17% for the first, 7.13% for the second.

First: O=C(NN=C1CCCC1)c1[nH]c2ccc(Cl)cc2c1-c1ccccc1
Second: O=C(CCCc1c[nH]c2ccccc12)NCc1ccccc1F
The “hERG current change (%, negative = inhibition) at 1uM” value of the first is higher: 8.8% for the first, 7.27% for the second.

Going from `Cc1nn(Cc2ccc(Cl)c(Cl)c2)c(C)c1NC(=O)c1cc(C2CC2)on1` to `CCNc1ccc(C(=O)OCC)cc1NC(=O)c1cc(S(=O)(=O)N2CCOCC2)ccc1C`, the “hERG current change (%, negative = inhibition) at 1uM” value falls from 4.2% to 3.02%.

Compared with `NC(=O)C1CCN(C(=O)CSc2nc3ccccc3s2)CC1`, `O=C(NC1CC1)C1CCN(S(=O)(=O)c2cc([N+](=O)[O-])ccc2Cl)CC1` is lower in “hERG current change (%, negative = inhibition) at 1uM” value: 11.3% for the first, -8.17% for the second.

Going from `CCS(=O)(=O)Nc1ccc(C2=NN(C(=S)Nc3ccccc3)C(c3ccco3)C2)cc1` (stereo not drawn) to `CC(=O)c1ccc(NS(=O)(=O)c2ccc(-c3cnc(C4CC4)o3)cc2)cc1`, the “hERG current change (%, negative = inhibition) at 1uM” value rises from 4.29% to 11.6%.

Compared with `Cc1cccc(OCC(=O)NNC(=O)CCCCC(=O)NNC(=O)COc2cccc(C)c2)c1`, `CCCCN(CCCC)S(=O)(=O)c1ccc2[nH]c(=O)[nH]c2c1` is lower in “hERG current change (%, negative = inhibition) at 1uM” value: 7.11% for the first, -4.52% for the second.

For `C=C(C)c1cccc(C(C)(C)NC(=O)N2CCN(c3ncccn3)CC2)c1`, the “hERG current change (%, negative = inhibition) at 1uM” value was 5.23%.
